This is one part of the list. These are noisy estimates, calculated here from bound and input reads.
target: T1, Pho4 (S. cerevisiae) (UniProt P07270); assay: relative binding free energy (BET-seq); higher = weaker binding; conditions: reference: library average
T1 sequence: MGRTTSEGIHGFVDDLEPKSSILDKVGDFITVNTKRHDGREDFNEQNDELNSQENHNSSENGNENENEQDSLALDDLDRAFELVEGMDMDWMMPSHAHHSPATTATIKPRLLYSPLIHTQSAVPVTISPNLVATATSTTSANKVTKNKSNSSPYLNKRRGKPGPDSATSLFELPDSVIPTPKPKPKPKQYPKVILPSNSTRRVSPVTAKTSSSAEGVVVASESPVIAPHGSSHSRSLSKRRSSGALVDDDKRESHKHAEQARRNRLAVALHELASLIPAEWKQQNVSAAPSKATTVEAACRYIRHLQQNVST

Relative binding free energy, 0.13 kcal/mol:
GGTGTCACGTGCGGGG
TCTATCACGTGCGTGG
GTATTCACGTGTATGA
TCATTCACGTGTAGGT
TTGGTCACGTGTTAGG
GTTGTCACGTGTCTAT
TATTGCACGTGATGAT

Relative binding free energy, 0.32 kcal/mol:
GCATTCACGTGAATGT
AGGTACACGTGAAGCG

Relative binding free energy, -0.34 kcal/mol:
TAGAGCACGTGGGGCT

Relative binding free energy, 0.15 kcal/mol:
CTAATCACGTGTGGGA
CGTTGCACGTGAGAGT
TGCTTCACGTGGGTGC

Relative binding free energy, -0.19 kcal/mol:
AGTGGCACGTGATGCT
TACTGCACGTGGGTGT

Relative binding free energy, 0.4 kcal/mol:
GGTTTCACGTGATTGT

Relative binding free energy, 0.23 kcal/mol:
TGTTACACGTGGATCA
GTTCGCACGTGAGGGG

Relative binding free energy, -0.16 kcal/mol:
ACGGGCACGTGGTGTT
TTCGCCACGTGGTTTG
ATAGGCACGTGGATAG
AAGGGCACGTGCAGGT

Relative binding free energy, 0.38 kcal/mol:
GAGTTCACGTGAGGTT
GTTAACACGTGAGGAT

Relative binding free energy, 0.33 kcal/mol:
TCAATCACGTGATGGT
CATTTCACGTGTAGTT

Relative binding free energy, 0.01 kcal/mol:
TACGGCACGTGATAGG
TTAGCCACGTGTATTG
GTGTACACGTGTCTTT
TTGTGCACGTGTCCAG
ATGTGCACGTGTAAGC

Relative binding free energy, -0.04 kcal/mol:
TGTAACACGTGTGGTA
TTGGGCACGTGACATT

Relative binding free energy, -0.07 kcal/mol:
GAGGACACGTGGGTGC
TTTGACACGTGCGTTT

Relative binding free energy, -0.08 kcal/mol:
TGATACACGTGGGTCT
GGTGGCACGTGTTTAG
AGGTGCACGTGTCCGT
TTGGACACGTGGTACT
ATTAGCACGTGTGGAG

Relative binding free energy, 0.3 kcal/mol:
ATGTTCACGTGTTCGG

Relative binding free energy, 0.34 kcal/mol:
TCATGCACGTGAGAGT
ACGGACACGTGTGATT

Relative binding free energy, 0.31 kcal/mol:
TGTATCACGTGATATT

Relative binding free energy, 0.25 kcal/mol:
TAGTACACGTGATTAT
AAGTTCACGTGTTATG
GATCTCACGTGTTGTG

Relative binding free energy, 0.04 kcal/mol:
TTATGCACGTGTAGGT
GACGCCACGTGTTGTT
GTGTCCACGTGGTGTA
GGGAACACGTGTAGGT

Relative binding free energy, 0.07 kcal/mol:
TATATCACGTGGGTGC
ATGGTCACGTGCGTTG
CGGGGCACGTGATGAG
GTATACACGTGGAGGC
GTGATCACGTGGGTTT

Relative binding free energy, 0.14 kcal/mol:
GGTAACACGTGATGCG
AATCACACGTGGAGGG
TATGTCACGTGTTGTG
ACGGTCACGTGTGATT

Relative binding free energy, 0.05 kcal/mol:
GTCATCACGTGGTGGT
TTTTCCACGTGCGGTG
GGCGGCACGTGTCGGA
CAGGTCACGTGGGAGA
GGTGGCACGTGTCCGA

Relative binding free energy, 0.47 kcal/mol:
TGGTTCACGTGTACAG

Relative binding free energy, -0.02 kcal/mol:
CATGGCACGTGTGTGA
CGATGCACGTGTGGCT
CTCGGCACGTGTGTTA
GATTGCACGTGCTAGT
GTTGGCACGTGCTGGG

Relative binding free energy, 0.21 kcal/mol:
GTATTCACGTGCGTTA

Relative binding free energy, -0.05 kcal/mol:
GGGGACACGTGCCGGG
TGGTGCACGTGCTGGA
GGGGGCACGTGCTTTG
ATTTGCACGTGCTTGG
CTTGTCACGTGGTTTA
GTTGGCACGTGTTGAA
TGGTGCACGTGTCGTG

Relative binding free energy, -0.2 kcal/mol:
CGTGGCACGTGTATGT
AGTGCCACGTGGGTCA
TAGTACACGTGGGCAT
TGGTCCACGTGGTCGG

Relative binding free energy, -0.17 kcal/mol:
GAGAGCACGTGTGTTG

Relative binding free energy, 0.18 kcal/mol:
AAAGTCACGTGATTAT
GTCAGCACGTGAGTGT
ATTTTCACGTGTATTG
CAGTTCACGTGGATGT

Relative binding free energy, 0.02 kcal/mol:
GTTCGCACGTGTTATG
TAGGACACGTGGCGTT
TGTTACACGTGTCGGG
TGGGACACGTGCAGGC

Relative binding free energy, -0.13 kcal/mol:
TGGGGCACGTGCTGAA
AGGGACACGTGGGTGT
TGACGCACGTGTTTTG
AATGCCACGTGTTTGT
GTGGGCACGTGCATGG

Relative binding free energy, 0.36 kcal/mol:
TTCTACACGTGAGGAT

Relative binding free energy, -0.26 kcal/mol:
GGGGGCACGTGGCGCT

Relative binding free energy, -0.23 kcal/mol:
GGGCCCACGTGGCGGG

Relative binding free energy, -0.33 kcal/mol:
CCGGGCACGTGCGGGT

Relative binding free energy, -0.22 kcal/mol:
GCGAGCACGTGGTGTG
AGGCACACGTGGGCGG
AGTGGCACGTGCGCGA
TTAGGCACGTGGGTTA

Relative binding free energy, 0.06 kcal/mol:
GCTAACACGTGTTTGT
TTACGCACGTGTGGCG
AGTGACACGTGTTTCA
GGTGTCACGTGCTGGA
TTAGTCACGTGGTTTC
GGCTGCACGTGGGACG

Relative binding free energy, -0.12 kcal/mol:
TCGTACACGTGGTATT
GTGTGCACGTGGGGGA
AGAGGCACGTGTTTGC

Relative binding free energy, 0.39 kcal/mol:
AATGTCACGTGAAGAT

Relative binding free energy, 0.16 kcal/mol:
TGGCTCACGTGTGTCT
TATGACACGTGATGTT
TGAGTCACGTGTTCGT
TGCGTCACGTGTGTGG
TCGGACACGTGAGGGT
TTTTGCACGTGATGTT
TTTTTCACGTGTGGCA

Relative binding free energy, 0.27 kcal/mol:
TGTTGCACGTGAGATG
TGGTGCACGTGAGAGT
TATTGCACGTGAGATA

Relative binding free energy, 0.17 kcal/mol:
TTGCACACGTGTAATG
TGTATCACGTGGAATT
GGTTACACGTGTGTAA
ATGTGCACGTGAGAGA

Relative binding free energy, 0.43 kcal/mol:
GCCTTCACGTGTTTTT

Relative binding free energy, -0.01 kcal/mol:
TGTAACACGTGGTTTT
CTGGACACGTGCAGGG
TCTGGCACGTGATGTA
GGAGACACGTGGGGAA
TCGGGCACGTGTTAGG
CTTAACACGTGTGGTG

Relative binding free energy, -0.03 kcal/mol:
AACAACACGTGGTGGG
GTTAACACGTGTTTAT
ATACGCACGTGTGAGG
TTGGACACGTGGTCGG
TGGTGCACGTGGCTCT

Relative binding free energy, 0.1 kcal/mol:
TCAATCACGTGTATTG
AGTTACACGTGGTTGT
CATGTCACGTGTTTGT
GTGATCACGTGTAGTA
GATAACACGTGGATGT
GGAGCCACGTGATGTG

Relative binding free energy, 0.03 kcal/mol:
AAGGGCACGTGAGGCA
CGTTGCACGTGGTAAG
GGAGACACGTGATAGG
GGGACCACGTGTTGGT
TCTGTCACGTGGTGTA
GTGCACACGTGGGTTA
AAGGTCACGTGGCGTG
CGTTACACGTGGAGGT

Relative binding free energy, -0.11 kcal/mol:
TGGGGCACGTGCGGTG

Relative binding free energy, -0.09 kcal/mol:
GGGGGCACGTGTTCAC
GCGAGCACGTGTGTGG

Relative binding free energy, -0.14 kcal/mol:
TGATGCACGTGGTACG
GGCTCCACGTGGGGGT
GGTCGCACGTGGGCTG
TCGAGCACGTGGTGAT

Relative binding free energy, 0.09 kcal/mol:
TGCATCACGTGTCGGT
AGTGACACGTGACTGG
TGGGACACGTGTGGTC

Relative binding free energy, 0 kcal/mol:
TGTTACACGTGGGTAT
ATAAACACGTGTGTGC
TGGACCACGTGAGGTG
AGGTACACGTGGAGTG
GATAGCACGTGGTAGA

Relative binding free energy, 0.41 kcal/mol:
ATTTACACGTGGAGAA
CATTTCACGTGTGTGC

Relative binding free energy, -0.21 kcal/mol:
TTAGGCACGTGCCGGT

Relative binding free energy, 0.22 kcal/mol:
TTGTTCACGTGTTCGG
CGTTTCACGTGTCGTG
TGGTTCACGTGGCAAA

Relative binding free energy, -0.15 kcal/mol:
TTTGACACGTGGGTAA

Relative binding free energy, 0.72 kcal/mol:
GAAATCACGTGACGTT

Relative binding free energy, 0.29 kcal/mol:
GTTTACACGTGATAAG

Relative binding free energy, 0.26 kcal/mol:
GTTTTCACGTGTTAAT
TAATTCACGTGGAAGG

Relative binding free energy, 0.19 kcal/mol:
TAGGTCACGTGTTGTT
AATGTCACGTGATTAA
CGGTTCACGTGCTTGG

Relative binding free energy, -0.24 kcal/mol:
GGTGCCACGTGGTCTG
ATAAGCACGTGGGCGG
ATTTGCACGTGGCTAT

Relative binding free energy, -0.06 kcal/mol:
CTGGGCACGTGTGCAA
TATAACACGTGGCTGG
GGAAGCACGTGTACGG
TCAGACACGTGGGGGA
TGATCCACGTGGTTAT
GTCGTCACGTGTTGAT
TGATACACGTGGTATT
TAACACACGTGGGTTT

Relative binding free energy, 0.24 kcal/mol:
CGTGACACGTGAAGTG
GGTGTCACGTGATGGT
GGGGACACGTGATAGC

Relative binding free energy, 0.2 kcal/mol:
TTTTACACGTGTGTTT
ATTATCACGTGTGCAT
ATAGTCACGTGGAGTT

Relative binding free energy, -0.29 kcal/mol:
AGGGGCACGTGCCTTG

Relative binding free energy, 0.44 kcal/mol:
GTGTTCACGTGAGATT

Relative binding free energy, -0.18 kcal/mol:
TATAGCACGTGGTAGT
CTGTGCACGTGGTCGG
AGCGGCACGTGGTTCT

Relative binding free energy, 0.28 kcal/mol:
GATATCACGTGGCGCG
ATTTTCACGTGATGAA
GCATTCACGTGTTTGG

Relative binding free energy, 0.51 kcal/mol:
ATTTTCACGTGAGTCG
ATTCTCACGTGAAGGG

Relative binding free energy, 0.11 kcal/mol:
CTTTACACGTGTAGTG
GATGTCACGTGTTCGT
TAGTACACGTGTATGG
AGGGTCACGTGCAGGA
TGCTTCACGTGGTTAA
TACTGCACGTGTATGA
GGTAACACGTGTAAGG

Relative binding free energy, 0.12 kcal/mol:
ATAATCACGTGGAAGG
AGGAGCACGTGAGGAT
ATCTTCACGTGGCGTT
TCGAACACGTGTAGTG
TTGTACACGTGTTAAT
TTGTGCACGTGTCGTC
ATTATCACGTGTGTGC
TTTTACACGTGGAGTG

Relative binding free energy, 0.08 kcal/mol:
AACATCACGTGGGGCG
CAAGGCACGTGATTGT
GGCCGCACGTGTTTGG
TGTGCCACGTGAAGAG

Source: the BET-seq Pho4 binding data (Le et al. 2018)
